Measured values: PubChem BioAssay AID504332 (National Center for Advancing Translational Sciences (NCATS), 2011)
The campaign covered roughly 350,000 compounds. About 31,000 (8.9%) were called active. The shares of active, inactive and inconclusive entries below differ from those in the screen. Calls come from the whole dose curve; as a rule, active = well fitted inhibition curve with a large enough effect; inconclusive = small, poorly fitted or top-dose-only effect; inactive = no such curve, though single readings can be large or run the other way. Potencies of inconclusive entries are doubtful fits and often do not repeat.

biological target: Histone-lysine N-methyltransferase EHMT2 (Homo sapiens) (UniProt Q96KQ7); assay: qHTS Assay for Inhibitors of Histone Lysine Methyltransferase G9a; conditions: G9a H3K9 monomethylation, AlphaScreen, 2 h; activity, negative = inhibition: at 59 µM (top of the series) unless noted; note: nearly all actives have a fitted effect of over 75% in size
In short: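 Enzyme 20 nM + cpd, 15 min RT; add b-H3K9 pep 500 nM / SAM 20 uM; 2 h RT; anti-H3K9me1 Ab 0.5 ug/mL + SA donor / anti-rabbit acceptor beads 20 ug/mL each, 10 min; AlphaScreen read.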
% is set by controls: 0 for no effect and ±100 for the full control effect; potency is the fitted concentration of half-maximal effect; tags give direction and shape of the fitted curve.

Sequence of UniProt Q96KQ7 (Q96KQ7 whole entry, looked up): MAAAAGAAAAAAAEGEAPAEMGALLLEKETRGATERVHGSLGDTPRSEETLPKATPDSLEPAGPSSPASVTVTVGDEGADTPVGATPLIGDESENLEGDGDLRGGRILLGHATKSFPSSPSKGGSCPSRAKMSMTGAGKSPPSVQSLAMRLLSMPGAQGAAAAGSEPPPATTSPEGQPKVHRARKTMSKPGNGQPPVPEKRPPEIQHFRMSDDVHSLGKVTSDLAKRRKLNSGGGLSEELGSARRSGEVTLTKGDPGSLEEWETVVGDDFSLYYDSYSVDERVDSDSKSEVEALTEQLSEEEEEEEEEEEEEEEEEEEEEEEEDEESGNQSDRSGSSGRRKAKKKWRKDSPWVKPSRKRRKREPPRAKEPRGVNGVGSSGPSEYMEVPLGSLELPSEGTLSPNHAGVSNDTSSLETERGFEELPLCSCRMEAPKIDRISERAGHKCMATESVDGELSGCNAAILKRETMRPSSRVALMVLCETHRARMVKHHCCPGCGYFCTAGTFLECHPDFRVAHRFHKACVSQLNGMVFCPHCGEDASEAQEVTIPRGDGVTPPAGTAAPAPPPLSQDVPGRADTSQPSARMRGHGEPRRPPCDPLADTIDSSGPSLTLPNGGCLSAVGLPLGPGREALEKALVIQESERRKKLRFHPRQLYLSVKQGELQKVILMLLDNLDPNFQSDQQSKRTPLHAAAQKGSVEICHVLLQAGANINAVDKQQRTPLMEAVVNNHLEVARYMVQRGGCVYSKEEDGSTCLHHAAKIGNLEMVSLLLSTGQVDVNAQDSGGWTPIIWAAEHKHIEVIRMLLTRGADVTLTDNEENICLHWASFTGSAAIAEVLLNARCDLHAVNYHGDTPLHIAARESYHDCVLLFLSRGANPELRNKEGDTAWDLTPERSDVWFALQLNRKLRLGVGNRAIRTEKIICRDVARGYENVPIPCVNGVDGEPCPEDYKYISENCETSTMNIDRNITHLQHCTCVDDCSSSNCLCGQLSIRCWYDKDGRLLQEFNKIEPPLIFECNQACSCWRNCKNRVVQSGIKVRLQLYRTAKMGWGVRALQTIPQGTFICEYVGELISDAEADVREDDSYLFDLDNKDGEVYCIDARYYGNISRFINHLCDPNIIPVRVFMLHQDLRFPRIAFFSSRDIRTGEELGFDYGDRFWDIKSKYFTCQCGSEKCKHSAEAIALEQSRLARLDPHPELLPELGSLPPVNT

**Q.** CCCNC(=O)CN1C(=O)c2c(c3ccccc3n2C)C1c1ccc(OC)cc1 (stereo not given) was tested. Which Potency did it give?
**A.** Its Potency is inconclusive: 25.1 µM [inhibitor, partial curve, poor fit].

**Q.** Which Potency does the source give for CCOC(=O)c1ccccc1NC(=O)/C=C/C(=O)O here?
**A.** The Potency was inconclusive: 7.08 µM [inhibitor, partial curve, poor fit].

**Q.** Which Potency does the source give for COCCN(C(=O)CSc1nc(-c2ccccc2)cn1N)c1c(N)n(Cc2ccccc2)c(=O)[nH]c1=O here?
**A.** The Potency was active: 8.91 µM.

**Q.** For Cc1ccc(C)c(N(CC(=O)NCc2ccco2)C(=O)CCC(=O)Nc2ccccn2)c1, which Potency is on record?
**A.** Its Potency is inconclusive: 39.8 µM [inhibitor, single point].

**Q.** For O=C(c1ccc2c(c1)CCN2S(=O)(=O)c1ccccc1)N1CCN(c2ccccc2)CC1, which Potency is on record?
**A.** The Potency was inconclusive: 1 µM [inhibitor, partial curve, poor fit].

**Q.** With Cc1ccc(Cl)cc1NC(=O)C(NS(=O)(=O)c1ccc2c(c1)CCC(=O)N2)c1ccccc1 (stereo not given) as the molecule, how does the Potency read?
**A.** Its Potency is inconclusive: 17.8 µM [inhibitor, partial curve].

**Q.** For Cc1ccc(CNS(=O)(=O)c2ccc3oc(C(=O)O)c(C)c3c2)cc1, which Potency is on record?
**A.** Its Potency is inconclusive: 12.6 µM [inhibitor, partial curve, poor fit].

**Q.** Which Potency does the source give for COc1ccc(-n2c(-c3ccc(Cl)cc3)c[nH]c2=S)cc1 here?
**A.** The Potency was inconclusive: 79.4 µM [inhibitor, partial curve, poor fit].

**Q.** O=C1NC(=Nc2ccccc2Cl)S/C1=C\c1ccc(C(=O)O)cc1 was tested. Which Potency did it give?
**A.** Its Potency is “inactive”.

**Q.** For Cc1cccc(NC(=S)N(Cc2ccc(Br)cc2)Cc2ccc(C(=O)O)cc2)c1, which Potency is on record?
**A.** The Potency was inconclusive: 44.7 µM [inhibitor, partial curve, poor fit].

**Q.** How did the Potency turn out when O=C(NCc1ccccc1)c1ccc(Br)o1 was run?
**A.** Its Potency is “inactive”.

**Q.** How did the Potency turn out when CC(C)c1ccc(OCC(=O)Nc2c3c(nn2C(C)(C)C)CS(=O)(=O)C3)cc1 was run?
**A.** Its Potency is inconclusive: 89.1 µM [inhibitor, single point].

**Q.** How did the Potency turn out when CCC(Sc1ccc(C(=O)O)cc1)C(=O)O (stereo not given) was run?
**A.** Its Potency is “inactive”.

**Q.** How did the Potency turn out when O=c1[nH]c(-[n+]2ccc3ccccc3c2)c(/C=N/N=C(\[O-])c2ccccc2)s1 was run?
**A.** Its Potency is inconclusive: 100 µM [inhibitor, single point].

**Q.** Which Potency does the source give for CCC(=O)N1CCc2cc(S(=O)(=O)NC(Cc3ccccc3)C(=O)NCc3cccc(OC)c3)ccc21 (stereo not given) here?
**A.** Its Potency is “inactive”.

**Q.** Which Potency does the source give for CC(=O)Nc1ccc(NC(=O)COC(=O)C2(c3ccc(Cl)cc3)CCCC2)cc1 here?
**A.** The Potency was inconclusive: 25.1 µM [inhibitor, single point].

**Q.** For O=C1NC(=O)C2C1C(c1cccs1)NN2Cc1ccccc1 (stereo not given), which Potency is on record?
**A.** Its Potency is active: 50.1 µM.

**Q.** Which Potency does the source give for COc1ccc2cc(CNc3ccccc3)c(=O)n(CC(=O)Nc3ccc(C(C)=O)cc3)c2c1 here?
**A.** Its Potency is “inactive”.

**Q.** How did the Potency turn out when Cc1ccccc1NC(=O)Cc1nc(COC(=O)c2ccc(Cl)nc2)cs1 was run?
**A.** The Potency was inconclusive: 79.4 µM [inhibitor, partial curve, poor fit].

**Q.** N#Cc1ccc(C(c2nnnn2Cc2ccccc2)N2CCCC2)cc1 (stereo not given) was tested. Which Potency did it give?
**A.** Its Potency is inconclusive: 89.1 µM [inhibitor, single point].

**Q.** CO/N=C/c1ccc(Oc2ccc([N+](=O)[O-])cc2[N+](=O)[O-])c(OC)c1 was tested. Which Potency did it give?
**A.** Its Potency is inconclusive: 39.8 µM [inhibitor, single point].

**Q.** COc1ccc(S(=O)(=O)N2CCC(C(=O)N3CCOCC3)CC2)cc1Cl was tested. Which Potency did it give?
**A.** Its Potency is inconclusive: 0.224 µM [inhibitor, partial curve, poor fit].

**Q.** Which activity, negative = inhibition does the source give for COc1cc2cc(CCCOC(=O)CCC(=O)O)oc(=O)c2cc1OC here?
**A.** The activity, negative = inhibition was inactive: 0.887% [at 0.501 µM].

**Q.** How did the activity, negative = inhibition turn out when C=CCn1c(O)c(N=Nc2ccccc2O)c2ccccc21 was run?
**A.** Its activity, negative = inhibition is inactive: -14.8% [at 2.33 µM].

**Q.** For Cc1ccc(-c2nn(-c3ccc(F)cc3)cc2C(=O)NCCCN2CCCC2=O)cc1, which Potency is on record?
**A.** The Potency was “inactive”.

**Q.** CCN(CC)S(=O)(=O)c1cccc(-c2nnc(SC(C)C#N)n2Cc2ccccc2)c1 (stereo not given) was tested. Which Potency did it give?
**A.** Its Potency is inconclusive: 44.7 µM [inhibitor, partial curve, poor fit].

**Q.** How did the Potency turn out when O=C1CC(N2CCN(Cc3ccccc3)CC2)C(=O)N1c1ccc2c(c1)OCCO2 (stereo not given) was run?
**A.** The Potency was inconclusive: 3.55 µM [inhibitor, partial curve, poor fit].

**Q.** How did the Potency turn out when O=C(O)c1cc(-c2ccc(Br)s2)nc2ccccc12 was run?
**A.** Its Potency is inconclusive: 89.1 µM [inhibitor, single point].

**Q.** O=C(Nc1cccc(S(=O)(=O)N2CCCCC2)c1)c1ccc(OCC2CCCO2)cc1 (stereo not given) was tested. Which Potency did it give?
**A.** The Potency was active: 56.2 µM.

**Q.** How did the Potency turn out when COC(CNC(=O)c1ccc(-n2c(=S)[nH]c3ccccc3c2=O)cc1)OC was run?
**A.** Its Potency is inconclusive: 50.1 µM [inhibitor, partial curve, poor fit].

**Q.** For O=C(/C=C/NNC(=O)c1ccccc1)c1ccc(Br)cc1, which Potency is on record?
**A.** The Potency was “inactive”.

**Q.** How did the Potency turn out when CCCC(CCC(=O)Nc1cc([N+](=O)[O-])ccc1O)C(=O)O (stereo not given) was run?
**A.** The Potency was inconclusive: 3.55 µM [inhibitor, full curve, poor fit].

**Q.** Which Potency does the source give for Cc1cc(C)c(OCC(=O)OCC(=O)N2CCN(C(=O)c3ccco3)CC2)c(C)c1 here?
**A.** Its Potency is inconclusive: 89.1 µM [inhibitor, partial curve, poor fit].

**Q.** For CC(C)C[C@@H]1NC(=O)[C@H](Cc2ccc(O)cc2)NC(=O)[C@H](CCC(N)=O)NC(=O)c2cc([N+](=O)[O-])cc(I)c2NCC[C@@H](C(N)=O)NC1=O, which Potency is on record?
**A.** The Potency was active: 7.08 µM.

**Q.** With CCN1CCN(c2ccc(S(=O)(=O)N3CCOCC3)cc2NC(=O)C(C)Oc2ccc(F)cc2)CC1 (stereo not given) as the molecule, how does the Potency read?
**A.** Its Potency is inconclusive: 6.31 µM [inhibitor, single point].

**Q.** For O=C(CCN1c2ccccc2Sc2ccccc21)Nc1ccccc1, which Potency is on record?
**A.** The Potency was active: 50.1 µM.

**Q.** With Cc1ccc(S(=O)(=O)N2CCOCC2)cc1N/N=C(\C#N)c1nc2ccccc2[nH]1 as the molecule, how does the Potency read?
**A.** Its Potency is active: 35.5 µM.

**Q.** How did the Potency turn out when CSc1nc(C)cc(OCCO)n1 was run?
**A.** Its Potency is inconclusive: 1.12 µM [inhibitor, full curve, poor fit].

**Q.** Which Potency does the source give for COC(=O)c1ccc(NC(=O)C2C3CCC(C3)C2C(=O)O)cc1 (stereo not given) here?
**A.** Its Potency is inconclusive: 39.8 µM [inhibitor, single point].

**Q.** Cc1cc(Oc2nc3ccccn3c(=O)c2/C=C(\C#N)c2nc3ccccc3s2)ccc1Cl was tested. Which Potency did it give?
**A.** The Potency was active: 10 µM.

**Q.** How did the activity, negative = inhibition turn out when Cc1ccc(C[C@H](C(=O)O)N2C(=O)c3ccc(C(=O)O)cc3C2=O)c(C)c1 was run?
**A.** The activity, negative = inhibition was inactive: 15.6% [at 12.7 µM].

**Q.** With COc1cccc(-c2cc(C(F)(F)F)n3nc(C(=O)N4CCCCC4c4cccnc4)cc3n2)c1 (stereo not given) as the molecule, how does the Potency read?
**A.** Its Potency is inconclusive: 89.1 µM [inhibitor, partial curve, poor fit].

**Q.** O=C(CSc1ccc(Cl)cc1)NNC(=O)c1ccco1 was tested. Which Potency did it give?
**A.** The Potency was “inactive”.

**Q.** How did the Potency turn out when Cc1csc(=O)n1CCC(=O)OCC(=O)NNC(=O)c1ccc(Br)cc1 was run?
**A.** Its Potency is inconclusive: 6.31 µM [inhibitor, single point].

**Q.** CC1=C(C(=O)Nc2ccc(C)cc2C)C(c2cccs2)n2nc(SCc3ccc(Cl)cc3)nc2N1 (stereo not given) was tested. Which Potency did it give?
**A.** Its Potency is “inactive”.

**Q.** With Cc1cc(C(=O)N2CCN(c3ccccc3O)CC2)c(C)o1 as the molecule, how does the Potency read?
**A.** The Potency was inconclusive: 50.1 µM [inhibitor, partial curve].

**Q.** How did the Potency turn out when COc1ccc(C=O)cc1OC(=O)C1(C)Cc2ccccc2C(=O)O1 (stereo not given) was run?
**A.** The Potency was inconclusive: 89.1 µM [inhibitor, partial curve, poor fit].

**Q.** With Cc1cc(N2CCN(C)CC2)nc2ccc(NC(=O)CCC3CCCC3)cc12 as the molecule, how does the Potency read?
**A.** Its Potency is inconclusive: 79.4 µM [inhibitor, single point].

**Q.** COCC(C)NS(=O)(=O)c1ccc(N2CCCCS2(=O)=O)cc1 (stereo not given) was tested. Which Potency did it give?
**A.** Its Potency is “inactive”.

**Q.** With Cc1cc(Br)c(OCc2ccc(C(=O)N/N=C3\CC(=O)CC(C)(C)C3)cc2)c(Br)c1 as the molecule, how does the Potency read?
**A.** The Potency was inconclusive: 1.12 µM [inhibitor, partial curve, poor fit].

**Q.** COC(=O)[C@H](Cc1ccccc1)NC(=O)O[C@@H]1C(=O)c2cc(Br)ccc2O[C@H]1c1cccc(OC)c1 was tested. Which Potency did it give?
**A.** The Potency was inconclusive: 79.4 µM [inhibitor, single point].

**Q.** How did the Potency turn out when Cc1ccc(C(=O)Nc2nc(-c3ccco3)c(-c3ccco3)s2)o1 was run?
**A.** The Potency was active: 14.1 µM.

**Q.** For CCOC(=O)C1=C(O)C(=O)N(c2ccc(S(N)(=O)=O)cc2)C1c1cccc([N+](=O)[O-])c1 (stereo not given), which Potency is on record?
**A.** Its Potency is inconclusive: 70.8 µM [inhibitor, partial curve].

**Q.** Which Potency does the source give for Cc1cc(C)c(NC(=S)N2CCCC2C(=O)O)c(C)c1 (stereo not given) here?
**A.** The Potency was inconclusive: 10 µM [inhibitor, partial curve, poor fit].

**Q.** COCCN(C(=O)CCc1ccccc1OC)c1nnc(-c2cccnc2)s1 was tested. Which Potency did it give?
**A.** Its Potency is “inactive”.

**Q.** For NC(=O)CN1C(=O)/C(=c2\sc3nc(=O)c(Cc4ccccc4)nn3c2=O)c2ccccc21, which Potency is on record?
**A.** The Potency was active: 7.94 µM.

**Q.** For O=C(Nc1cc(S(=O)(=O)N2CCOCC2)ccc1N1CCCC1)c1ccc(F)cc1, which Potency is on record?
**A.** The Potency was inconclusive: 2.51 µM [inhibitor, partial curve, poor fit].

**Q.** Which Potency does the source give for COCCCN1C(=O)C(=O)/C(=C(/O)c2ccc3c(c2)CC(C)O3)C1c1cccnc1 (stereo not given) here?
**A.** Its Potency is inconclusive: 31.6 µM [inhibitor, partial curve, poor fit].

**Q.** O=C(NN=C1CCCC1)c1sc2ccccc2c1Cl was tested. Which Potency did it give?
**A.** Its Potency is inconclusive: 79.4 µM [inhibitor, partial curve, poor fit].

**Q.** CCc1ccc2c(c1)c(N=NC1=NC(=O)CS1)c(O)n2C was tested. Which Potency did it give?
**A.** The Potency was active: 12.6 µM.

**Q.** How did the Potency turn out when [N-]=[N+]=CC(=O)CCCN1C(=O)c2ccccc2C1=O was run?
**A.** The Potency was “inactive”.

**Q.** With COc1cccc(CN2CCC(Oc3ccc(C(=O)N4CCCCC4)cc3)CC2)c1O as the molecule, how does the Potency read?
**A.** Its Potency is inconclusive: 1.41 µM [inhibitor, partial curve, poor fit].

**Q.** How did the Potency turn out when Cc1ccc(Nc2nc(CSc3nnc(-c4ccccc4)n3C)cs2)cc1 was run?
**A.** The Potency was inconclusive: 39.8 µM [inhibitor, single point].

**Q.** CCOC(=O)C1CCN(C(=O)Cc2c(C(=O)O)[nH]c3ccccc23)CC1 was tested. Which activity, negative = inhibition did it give?
**A.** Its activity, negative = inhibition is inactive: 16% [at 2.33 µM].

**Q.** With COC(=O)c1cc(CN2CCN(c3ccccc3C)CC2)ccc1O as the molecule, how does the Potency read?
**A.** Its Potency is active: 7.08 µM.
